{"source": "paper PMC2783589", "about": "(Biochemistry, 2009)", "key": {"[1]": {"test_system": "O=C1CNC(=O)[C@H](Cc2c[nH]c3ccccc23)N1", "test": "purified protein", "details": "DMAPP, 50 mM Tris-HCl pH 7.5, 30 °C"}, "[2]": {"test_system": "O=C1N[C@@H](Cc2c[nH]c3ccccc23)C(=O)N[C@H]1Cc1ccccc1", "test": "purified protein", "details": "DMAPP, 50 mM Tris-HCl pH 7.5, 30 °C"}, "[3]": {"test_system": "CC(=O)C1C(=O)N[C@@H](Cc2c[nH]c3ccccc23)C1=O", "test": "purified protein", "details": "250 μM DMAPP, 50 mM Tris-HCl pH 7.5, 30 °C, no divalent metal"}, "[4]": {"test_system": "O=C1N[C@@H](Cc2c[nH]c3ccccc23)C(=O)N[C@H]1Cc1c[nH]c2ccccc12", "test": "purified protein", "details": "DMAPP, 50 mM Tris-HCl pH 7.5, 30 °C"}, "[5]": {"test_system": "O=C1N[C@@H](Cc2c[nH]c3ccccc23)C(=O)N[C@H]1Cc1ccc(O)cc1", "test": "purified protein", "details": "DMAPP, 50 mM Tris-HCl pH 7.5, 30 °C"}, "[6]": {"test_system": "CC(=O)C1C(=O)N[C@H](Cc2c[nH]c3ccccc23)C1=O", "test": "purified protein", "details": "250 μM DMAPP, 50 mM Tris-HCl pH 7.5, 30 °C, no divalent metal"}, "[7]": {"test_system": "CC(=O)C1C(=O)N[C@@H](Cc2ccc(O)cc2)C1=O", "test": "purified protein", "details": "DMAPP, 50 mM Tris-HCl pH 7.5, 30 °C, O-dimethylallylation"}, "CpaD (CpaD_Ao)": {"biological_target": "CpaD (CpaD_Ao) (Aspergillus oryzae, UniProt F5HN73)", "sequence (F5HN73 whole entry, looked up)": "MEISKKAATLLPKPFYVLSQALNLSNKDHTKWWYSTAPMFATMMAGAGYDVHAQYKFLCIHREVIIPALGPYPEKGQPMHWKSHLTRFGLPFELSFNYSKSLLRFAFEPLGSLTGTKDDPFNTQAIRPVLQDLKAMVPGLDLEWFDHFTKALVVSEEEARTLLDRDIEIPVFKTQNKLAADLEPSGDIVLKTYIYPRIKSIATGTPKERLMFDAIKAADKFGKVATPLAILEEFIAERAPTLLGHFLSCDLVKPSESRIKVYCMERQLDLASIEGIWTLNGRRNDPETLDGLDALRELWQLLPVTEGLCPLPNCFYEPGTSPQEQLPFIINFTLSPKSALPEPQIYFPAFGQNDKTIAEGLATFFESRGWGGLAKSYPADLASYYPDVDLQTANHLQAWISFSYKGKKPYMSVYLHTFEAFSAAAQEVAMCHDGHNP", "details": "read-out: Kinetic profile / Km; DMAPP, 50 mM Tris-HCl pH 7.5, 30 °C"}}, "data": [{"compound": "CpaD (CpaD_Ao) (Aspergillus oryzae)", "values": [{"measurement": "Km", "setting": "[1]", "value": "712 ± 38", "unit": "µM"}, {"measurement": "kcat", "setting": "[1]", "value": "0.003 ± 0.000667", "unit": "s⁻¹"}, {"measurement": "kcat/Km", "setting": "[1]", "value": 4.23, "unit": "M⁻¹ s⁻¹"}, {"measurement": "Km", "setting": "[2]", "value": "546 ± 42", "unit": "µM"}, {"measurement": "kcat", "setting": "[2]", "value": "0.00483 ± 0.001", "unit": "s⁻¹"}, {"measurement": "kcat/Km", "setting": "[2]", "value": 8.85, "unit": "M⁻¹ s⁻¹"}, {"measurement": "Km", "setting": "[3]", "value": "109 ± 16", "unit": "µM"}, {"measurement": "kcat", "setting": "[3]", "value": "0.883 ± 0.2", "unit": "s⁻¹"}, {"measurement": "kcat/Km", "setting": "[3]", "value": 8100, "unit": "M⁻¹ s⁻¹"}, {"measurement": "Km", "setting": "[4]", "value": "638 ± 46", "unit": "µM"}, {"measurement": "kcat", "setting": "[4]", "value": "0.0035 ± 0.000833", "unit": "s⁻¹"}, {"measurement": "kcat/Km", "setting": "[4]", "value": 5.48, "unit": "M⁻¹ s⁻¹"}, {"measurement": "Km", "setting": "[5]", "value": "526 ± 34", "unit": "µM"}, {"measurement": "kcat", "setting": "[5]", "value": "0.00533 ± 0.00133", "unit": "s⁻¹"}, {"measurement": "kcat/Km", "setting": "[5]", "value": 10.1, "unit": "M⁻¹ s⁻¹"}, {"measurement": "Km", "setting": "[6]", "value": "382 ± 29", "unit": "µM"}, {"measurement": "kcat", "setting": "[6]", "value": "0.137 ± 0.0317", "unit": "s⁻¹"}, {"measurement": "kcat/Km", "setting": "[6]", "value": 350, "unit": "M⁻¹ s⁻¹"}, {"measurement": "Km", "setting": "[7]", "value": 368, "unit": "µM"}, {"measurement": "kcat", "setting": "[7]", "value": 0.52, "unit": "min⁻¹"}]}, {"compound": "O=C1N[C@@H](Cc2c[nH]c3ccccc23)C(=O)N2CCC[C@@H]12", "note": "[compound 8, DKP L-Trp-L-Pro 8]", "values": [{"measurement": "Km", "setting": "CpaD (CpaD_Ao)", "value": "756 ± 52", "unit": "µM"}]}]}
